# Source: the supplement of paper PMC12217912
# The other results are listed elsewhere or left out. The full chains were built here from the parent and the listed change. Values near 0.05 are background.
# B1: TEV protease; numbered along this chain (parent)
# chain: MGESLFKGPRDYNPISSSICHLTNESDGHTTSLYGIGFGPFIITNKHLFRRNNGTLVVQSLHGVFKVKDTTTLQQHLVDGRDMIIIRMPKDFPPFPQKLKFREPQREERICLVTTNFQTKSMSSMVSDTSCTFPSGDGIFWKHWIQTKDGQCGSPLVSTRDGFIVGIHSASNFTNTNNYFTSVPKNFMELLTNQEAQQWVSGWRLNADSVLWGGHKVFMVKPEEPFQPVKEATQL
# Variants of: B1
# Assay: raw area under fraction-flipped curve 0-4 h after induction (AUC4h, not background-subtracted), DNA-recorder readout of cleavage of the substrate (dimensionless); higher = more cleavage of the substrate by the protease variant
# Conditions: temperature: 34 °C; time window: 0-4 h after rhamnose induction
# Description: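 In vivo DNA recorder in E. coli TOP10(DE3) ΔrhaA at 34 °C. Each TEVp single-site mutant (parent TEVp 0) is paired with a single-site variant of the 7-mer TEVs (canonical ENLYFQ|S). The substrate sits between flexible linkers in a Bxb1-sfGFP-TEVs-SsrA fusion, so cleavage stabilises Bxb1 and speeds flipping of a recombination array, read by NGS. The value is the raw area under the fraction-flipped curve over 0-4 h after rhamnose induction (AUC4h), with ≥20 reads per time point. It is not background-subtracted; inactive controls average about 0.047.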
# 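Also: Bxb1 expression induced with 0.2% (w/v) L-rhamnose at OD600 near 0.5, cultures sampled hourly, flipped fraction per protease–substrate barcode pair counted by paired-end Illumina sequencing.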
Variant,area with substrate ENCYFQS,area with substrate ENEYFQS,area with substrate ENFYFQS,area with substrate ENGYFQS,area with substrate ENHYFQS,area with substrate ENKYFQS,area with substrate ENNYFQS,area with substrate ENQYFQS,area with substrate ENRYFQS,area with substrate ENYYFQS,area with substrate ENIYFQS,area with substrate ENMYFQS,area with substrate ENPYFQS,area with substrate ENSYFQS,area with substrate ENVYFQS,area with substrate ENWYFQS,area with substrate ENDYFQS,area with substrate ENTYFQS
MGESLFKGPRDYNPISSSICHLTNESDGHTTSLYGIGFGPFIITNKHLFRRNNGTLVVQSLHGVFKVKDTTTLQQHLVDGRDMIIVRMPKDFPPFPQKLKFREPQREERICLVTTNFQTKSMSSMVSDTSCTFPSGDGIFWKHWIQTKDGQCGSPLVSTRDGFIVGIHSASNFTNTNNYFTSVPKNFMELLTNQEAQQWVSGWRLNADSVLWGGHKVFMVKPEEPFQPVKEATQL [I86V],0.0618,0.0645,0.061,0.0623,0.0584,0.0453,0.0524,0.0535,0.0564,0.0596,–,–,–,–,–,–,–,–
MGESLFKGPRDYNPISSSICHLTNESDGHTTSLYGIGFGPFIITNKHLFRRNNGTLVVQSLHGVFKVKDTTTLQQHLVDGRDMIIIRMPKDFMPFPQKLKFREPQREERICLVTTNFQTKSMSSMVSDTSCTFPSGDGIFWKHWIQTKDGQCGSPLVSTRDGFIVGIHSASNFTNTNNYFTSVPKNFMELLTNQEAQQWVSGWRLNADSVLWGGHKVFMVKPEEPFQPVKEATQL [P93M],0.0733,0.0738,0.0582,0.0527,0.0542,–,–,0.0571,0.0796,0.0762,0.142,0.0739,0.0636,0.0641,0.0951,0.0043,–,–
MGESLFKGPRDYNPISSSICHLTNESDGHTTSLYGIGFGPFIITNKHLFRRNNGTLVVQSLHGVFKVKDTTTLQQHLVDGRDMIIIRMPKDFPPFPQKLKFREPQREEQICLVTTNFQTKSMSSMVSDTSCTFPSGDGIFWKHWIQTKDGQCGSPLVSTRDGFIVGIHSASNFTNTNNYFTSVPKNFMELLTNQEAQQWVSGWRLNADSVLWGGHKVFMVKPEEPFQPVKEATQL [R109Q],0.0698,0.0519,0.0631,0.0575,0.0605,0.063,–,–,0.0602,–,0.104,–,–,0.0718,0.0723,0.0562,0.075,–
MGESLFKGPRDYNPISSSICHLTNESDGHTTSLYGIGFGPFIITNKHLFRRNNGTLVVQSLHGVFKVKDTTTLQQHLVDGRDMIIIRMPKDFPPFPQKLKFREPQREERICLVTTSFQTKSMSSMVSDTSCTFPSGDGIFWKHWIQTKDGQCGSPLVSTRDGFIVGIHSASNFTNTNNYFTSVPKNFMELLTNQEAQQWVSGWRLNADSVLWGGHKVFMVKPEEPFQPVKEATQL [N116S],0.0772,–,–,0.0614,0.0621,0.0565,–,0.0668,0.0314,0.0646,0.105,–,0.052,–,0.0737,0.001,0.0596,–
MGESLFKGPRDYNPISSSICHLTNESDGHTTSLYGIGFGPFIITNKHLFRRNNGTLVVQSLHGVFKVKDTTTLQQHLVDGRDMIIIRMPKDFPPFPQKLKFREPQREERICLVTTNFQTKSMSSMVSDTYCTFPSGDGIFWKHWIQTKDGQCGSPLVSTRDGFIVGIHSASNFTNTNNYFTSVPKNFMELLTNQEAQQWVSGWRLNADSVLWGGHKVFMVKPEEPFQPVKEATQL [S130Y],0.0589,0.0573,0.0562,0.0684,–,–,0.0624,0.0583,0.0568,–,0.106,0.0678,0.0595,0.0614,0.0758,0.0444,0.0616,0.0542
MGESLFKGPRDYNPISSSICHLTNESDGHTTSLYGIGFGPFIITNKHLFRRNNGTLVVQSLHGVFKVKDTTTLQQHLVDGRDMIIIRMPKDFPPFPQKLKFREPQREERICLVTTNFQTKSMSSMVSDTSCTFGSGDGIFWKHWIQTKDGQCGSPLVSTRDGFIVGIHSASNFTNTNNYFTSVPKNFMELLTNQEAQQWVSGWRLNADSVLWGGHKVFMVKPEEPFQPVKEATQL [P134G],0.0676,–,0.0608,0.059,0.0636,–,0.0503,–,–,–,0.0769,0.0704,0.0663,0.0769,0.06,–,0.0612,0.0666
MGESLFKGPRDYNPISSSICHLTNESDGHTTSLYGIGFGPFIITNKHLFRRNNGTLVVQSLHGVFKVKDTTTLQQHLVDGRDMIIIRMPKDFPPFPQKLKFREPQREERICLVTTNFQTKSMSSMVSDTSCTFPSGDGIFWKHWIQTKDGQCGWPLVSTRDGFIVGIHSASNFTNTNNYFTSVPKNFMELLTNQEAQQWVSGWRLNADSVLWGGHKVFMVKPEEPFQPVKEATQL [S154W],0.0647,0.0697,0.0626,0.0702,0.0614,0.0536,0.0602,0.0551,–,0.0646,0.0621,–,0.0514,0.0598,–,0.0613,0.0524,0.043
MGESLFKGPRDYNPISSSICHLTNESDGHTTSLYGIGFGPFIITNKHLFRRNNGTLVVQSLHGVFKVKDTTTLQQHLVDGRDMIIIRMPKDFPPFPQKLKFREPQREERICLVTTNFQTKSMSSMVSDTSCTFPSGDGIFWKHWIQTKDGQCGSPHVSTRDGFIVGIHSASNFTNTNNYFTSVPKNFMELLTNQEAQQWVSGWRLNADSVLWGGHKVFMVKPEEPFQPVKEATQL [L156H],0.0543,0.0821,0.0533,0.0465,0.0529,0.0599,–,0.0606,0.0492,0.0572,0.0529,0.0651,0.0602,0.0615,0.0522,–,0.0563,–
MGESLFKGPRDYNPISSSICHLTNESDGHTTSLYGIGFGPFIITNKHLFRRNNGTLVVQSLHGVFKVKDTTTLQQHLVDGRDMIIIRMPKDFPPFPQKLKFREPQREERICLVTTNFQTKSMSSMVSDTSCTFPSGDGIFWKHWIQTKDGQCGSPLVSTRWGFIVGIHSASNFTNTNNYFTSVPKNFMELLTNQEAQQWVSGWRLNADSVLWGGHKVFMVKPEEPFQPVKEATQL [D161W],0.0406,0.0603,0.0573,0.049,0.0508,0.0555,0.0603,0.0436,–,0.0583,0.055,0.0439,0.0498,0.0422,0.061,0.0517,0.0542,0.0511
